PubChem BioAssay AID2147 (National Center for Advancing Translational Sciences (NCATS), 2009)
Screen size: about 230,000 compounds; about 3,600 (1.6%) were called active. The shares of active, inactive and inconclusive entries below differ from those in the screen. Calls follow the shape of the dose curve; as a rule, active = well fitted inhibition curve with a large enough effect (not every such curve was filed as active); inconclusive = small, poorly fitted or top-dose-only effect, or another doubt; inactive = no such curve, though single readings can be large or run the other way. A potency beside an inconclusive call is a rough fit, not a confirmed value.

Each compound was assayed against Lysine-specific demethylase 4E (Homo sapiens) (UniProt B2RXH2) (assay: qHTS Assay for Inhibitors of Human Jumonji Domain Containing 2E (JMJD2E)). Conditions: JMJD2E catalytic domain, FDH-coupled NADH fluorescence (FDH is formaldehyde dehydrogenase); series mostly up to 57.1 µM.
Also: nearly all actives have a fitted effect of over 50% in size.
Potency is read from the fitted curve at half-maximal effect; tags tell the direction and shape of the fitted curve.

UniProt B2RXH2, sequence (B2RXH2 whole entry, looked up, the tested form may be a part): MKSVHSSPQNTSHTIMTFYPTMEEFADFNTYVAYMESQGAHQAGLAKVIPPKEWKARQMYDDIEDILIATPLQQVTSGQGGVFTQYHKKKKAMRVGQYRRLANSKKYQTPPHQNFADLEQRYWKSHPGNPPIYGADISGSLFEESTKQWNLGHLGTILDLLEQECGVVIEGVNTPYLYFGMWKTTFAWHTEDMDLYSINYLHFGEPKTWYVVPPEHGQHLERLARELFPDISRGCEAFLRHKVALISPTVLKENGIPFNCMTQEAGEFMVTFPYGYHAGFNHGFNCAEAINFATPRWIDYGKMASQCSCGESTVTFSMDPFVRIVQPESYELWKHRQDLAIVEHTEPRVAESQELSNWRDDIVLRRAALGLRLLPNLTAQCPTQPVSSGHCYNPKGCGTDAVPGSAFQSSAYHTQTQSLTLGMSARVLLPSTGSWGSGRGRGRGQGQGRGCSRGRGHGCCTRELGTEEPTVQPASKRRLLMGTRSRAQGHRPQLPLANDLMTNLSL

**Q.** With Nc1ccc2nc(CCCCCCc3nc4ccc(N)cc4[nH]3)[nH]c2c1 as the compound, how does the Potency read?
**A.** inconclusive: 39.8 µM [inhibitor, single point]

**Q.** For CCCCc1nc2ccccc2c(NC(=O)CNC(C)(C)C)c1CCC, which Potency is on record?
**A.** inconclusive: 39.8 µM [inhibitor, single point]

**Q.** For COc1ccc(N2CC(O)=C(c3nc(C)cs3)C2=N)cc1, which Potency is on record?
**A.** inactive

**Q.** For CCN(CC)CCCN(Cc1cc2cc(OC)c(OC)cc2[nH]c1=O)C(=O)Nc1ccccc1, which Potency is on record?
**A.** inconclusive: 25.1 µM [inhibitor, partial curve]

**Q.** NC(=O)c1ccccc1NC(=O)Nc1cccc(Cl)c1 was tested. Which Potency did it give?
**A.** inconclusive: 28.2 µM [inhibitor, partial curve]

**Q.** Cc1[nH]n(-c2ccc([N+](=O)[O-])cc2)c(=O)c1C=NCCc1ccc(S(N)(=O)=O)cc1 was tested. Which Potency did it give?
**A.** inactive

**Q.** How did the Potency turn out when N#Cc1c(-c2ccccc2Cl)c2c([nH]c1=O)-c1ccccc1OC2 was run?
**A.** inconclusive: 12.6 µM [inhibitor, partial curve]

**Q.** Which Potency does the source give for COc1ccc(C2CC(c3ccc(C)o3)=NN2C(C)=O)cc1 (stereo not given) here?
**A.** inconclusive: 39.8 µM [inhibitor, single point]

**Q.** For c1ccc(-c2oc3ncnc(NCCCn4ccnc4)c3c2-c2ccccc2)cc1, which Potency is on record?
**A.** inconclusive: 31.6 µM [inhibitor, partial curve]

**Q.** With CCOc1cc(C=O)cc(Cl)c1OCC(N)=O as the compound, how does the Potency read?
**A.** inactive

**Q.** For CCOC(=O)c1c(C)[nH]c(C2=NNC(=Nc3ccc(OCC)cc3)SC2)c1C, which Potency is on record?
**A.** inactive

**Q.** With CC(N=C1NC(C)(C)Cc2ccccc21)C(=O)O (stereo not given) as the compound, how does the Potency read?
**A.** inactive

**Q.** CC(C)OC(=O)c1cc2c(ccn2C)n1CC(=O)N(Cc1ccccc1)c1ccccc1 was tested. Which Potency did it give?
**A.** inconclusive: 35.5 µM [inhibitor, partial curve]

**Q.** COc1ccc2cc(C(=O)c3ccccc3)c(=O)oc2c1 was tested. Which Potency did it give?
**A.** inconclusive: 28.2 µM [inhibitor, single point]

**Q.** Which Potency does the source give for O=C(CCS(=O)(=O)Cc1ccccc1)N1CCN(c2ccccc2)CC1 here?
**A.** inactive

**Q.** With COC(=O)COc1cccc2c(=O)n(CC(=O)Nc3ccc4c(c3)OCCO4)ccc12 as the compound, how does the Potency read?
**A.** inconclusive: 35.5 µM [inhibitor, single point]

**Q.** For Cn1c(=O)c(Cc2ccccc2)c(O)c2ccccc21, which Potency is on record?
**A.** inconclusive: 28.2 µM [inhibitor, partial curve]

**Q.** With CCOn1c(=O)c(C)[n+]([O-])c2ccccc21 as the compound, how does the Potency read?
**A.** inconclusive: 31.6 µM [inhibitor, single point]

**Q.** Which Potency does the source give for O=[N+]([O-])c1cccc(-c2noc(-c3cccs3)n2)c1 here?
**A.** inactive

**Q.** Which Potency does the source give for CC(=O)Nc1nc2nc(-c3ccccc3)cc(-c3ccccc3)n2n1 here?
**A.** inconclusive: 7.08 µM [inhibitor, partial curve]

**Q.** For COc1ccccc1N1CSC2=C(C#N)C(c3ccc(SC)cc3)CC(=O)N2C1 (stereo not given), which Potency is on record?
**A.** active: 22.4 µM

**Q.** With C/C(O)=C(\C#N)c1nnc2n1CCCCC2 as the compound, how does the Potency read?
**A.** inconclusive: 39.8 µM [inhibitor, single point]

**Q.** How did the Potency turn out when Cc1cc(=O)oc2ccc(OCC(=O)N(Cc3ccc(F)cc3)Cc3ccco3)cc12 was run?
**A.** inconclusive: 35.5 µM [inhibitor, single point]

**Q.** For CC1(C)Cc2c(c(N3CCOCC3)nc3sc(C#N)c(N)c23)CS1, which Potency is on record?
**A.** inconclusive: 31.6 µM [inhibitor, partial curve]

**Q.** Which Potency does the source give for COc1ccc(NC(=O)c2ccco2)cc1NC(=O)c1cccnc1 here?
**A.** inactive

**Q.** For CC12CCC(C(=O)N3CCCCC3)([C@H](Br)C1=O)C2(C)C (stereo not given in full), which Potency is on record?
**A.** inactive

**Q.** For Cc1cc(NS(=O)(=O)c2ccc(Nc3nc(-c4sc(C)nc4C)cs3)cc2)no1, which Potency is on record?
**A.** inconclusive: 39.8 µM [inhibitor, single point]

**Q.** For NS(=O)(=O)c1ccc(-c2ccc(C=NC3CCS(=O)(=O)C3)o2)cc1 (stereo not given), which Potency is on record?
**A.** inconclusive: 35.5 µM [inhibitor, single point]

**Q.** Which Potency does the source give for O=C(Cn1cc(/C=N/NC(=O)c2ccccc2Br)c2ccccc21)Nc1ccc(F)cc1 here?
**A.** inconclusive: 35.5 µM [inhibitor, single point]

**Q.** CSc1nc2ccc(NS(=O)(=O)c3ccc([N+](=O)[O-])cc3)cc2s1 was tested. Which Potency did it give?
**A.** inactive

**Q.** With O=C(NC(NNc1ccc([N+](=O)[O-])cc1)(C(F)(F)F)C(F)(F)F)c1ccccc1Cl as the compound, how does the Potency read?
**A.** inconclusive: 11.2 µM [inhibitor, partial curve]

**Q.** Which Potency does the source give for O=C1Nc2ccc(S(=O)(=O)NCCC3=CCCCC3)c3cccc1c23 here?
**A.** inconclusive: 12.6 µM [inhibitor, partial curve]

**Q.** For Oc1cccc2c(NC(=S)Nc3ccc(SC(F)F)cc3)cccc12, which Potency is on record?
**A.** inconclusive: 5.01 µM [inhibitor, partial curve]

**Q.** Which Potency does the source give for O=C(COC(=O)CCCN1C(=O)c2cccc3cccc(c23)C1=O)Nc1cccc(C(F)(F)F)c1 here?
**A.** inconclusive: 31.6 µM [inhibitor, partial curve]

**Q.** For c1ccc(-c2nn3c(Cn4nnc5ccccc54)nnc3s2)nc1, which Potency is on record?
**A.** inconclusive: 22.4 µM [inhibitor, single point]

**Q.** Which Potency does the source give for COc1ccc(C(=O)Nc2ccnc(-c3cccnc3)n2)cc1 here?
**A.** inactive

**Q.** Which Potency does the source give for c1cc2c(cc1Nc1nc(-c3ccc4c(c3)OCO4)cs1)OCCO2 here?
**A.** inactive

**Q.** C=CCSc1nnc2nc3c(nn12)c1cc(C)ccc1n3CC=C was tested. Which Potency did it give?
**A.** inactive

**Q.** With CC1=CC(=C(C#N)c2nc3ccccc3s2)C=C(C)N1Cc1ccco1 as the compound, how does the Potency read?
**A.** inactive

**Q.** With CCn1c(C)cc(/C=C2\NC(=O)N(CC(=O)Nc3ccc(F)cc3)C2=O)c1C as the compound, how does the Potency read?
**A.** inconclusive: 39.8 µM [inhibitor, single point]

**Q.** For Oc1c(C(Nc2nccs2)c2ccc(C(F)(F)F)cc2)ccc2cccnc12 (stereo not given), which Potency is on record?
**A.** active: 3.55 µM

**Q.** With CCNC(=O)COC(=O)c1ccc(-c2nc3ccccc3s2)s1 as the compound, how does the Potency read?
**A.** inconclusive: 2.24 µM [inhibitor, partial curve]

**Q.** With NS(=O)(=O)c1ccc(NS(=O)(=O)c2ccc(NC(=S)Nc3ccccc3)cc2)cc1 as the compound, how does the Potency read?
**A.** inactive

**Q.** For CC(Cl)C(=O)c1ccc2c(c1)CCN2C(=O)C1CC1 (stereo not given), which Potency is on record?
**A.** inconclusive: 35.5 µM [inhibitor, single point]

**Q.** With CCOC(=O)C1=C(N)N(c2cc(S(=O)(=O)N3CCOCC3)ccc2Cl)C(=O)C1 as the compound, how does the Potency read?
**A.** inconclusive: 35.5 µM [inhibitor, single point]

**Q.** With COc1ccc(/C=N/NC(=O)CN2CCSCC2)c(OC)c1 as the compound, how does the Potency read?
**A.** inconclusive: 35.5 µM [inhibitor, single point]

**Q.** CCCSc1ccc(C(=O)Nc2ccc(F)cc2F)cn1 was tested. Which Potency did it give?
**A.** inconclusive: 28.2 µM [inhibitor, partial curve]

**Q.** With O=c1cc(CO)oc(CN2CCN(c3cccc(C(F)(F)F)c3)CC2)c1O as the compound, how does the Potency read?
**A.** inconclusive: 35.5 µM [inhibitor, single point]

**Q.** How did the Potency turn out when COc1cccc(C(=O)Nc2ccc(C(=O)NCC(C)C)cc2)c1 was run?
**A.** inconclusive: 35.5 µM [inhibitor, single point]

**Q.** Cc1ccc(CN2CCc3[nH]c(=O)[nH]c(=O)c3C2)cc1 was tested. Which Potency did it give?
**A.** inconclusive: 28.2 µM [inhibitor, partial curve]

**Q.** Nc1ccccc1C(=O)NC1CCCCNC1=O (stereo not given) was tested. Which Potency did it give?
**A.** inconclusive: 31.6 µM [inhibitor, partial curve]

**Q.** For CCOc1ccc(C2CC(=O)NC(SC)=C2C#N)cc1 (stereo not given), which Potency is on record?
**A.** inactive

**Q.** Which Potency does the source give for Cc1ccc(-n2[nH]c(C)c(C=Nc3ccc4[nH]c(=O)[nH]c4c3)c2=O)cc1 here?
**A.** inactive

**Q.** For O=C(CSc1nc2c(c(=O)[nH]1)CN(Cc1ccc(F)cc1)CC2)Nc1ccc(F)cc1, which Potency is on record?
**A.** inconclusive: 39.8 µM [inhibitor, single point]

**Q.** For COC(=O)c1c(NC(=O)C2CC2)sc(C(=O)Nc2ccccc2)c1C, which Potency is on record?
**A.** inactive

**Q.** Which Potency does the source give for CCC(Sc1nc2cc3c(cc2c(=O)n1Cc1ccco1)OCO3)C(=O)NCCOC (stereo not given) here?
**A.** inactive

**Q.** For Oc1ccccc1C=Nc1ccccc1-c1nc2ccccc2[nH]1, which Potency is on record?
**A.** inconclusive: 25.1 µM [inhibitor, partial curve]

**Q.** With Brc1ccc2c(c1)C(C1=NCCN1)c1ccccc1CS2 (stereo not given) as the compound, how does the Potency read?
**A.** inactive

**Q.** Which Potency does the source give for NC(=O)N/N=C/c1cccc(OCc2ccc(F)cc2)c1 here?
**A.** inactive

**Q.** With N/C(=N\NC(=O)c1sccc1OCc1ccc(Cl)cc1Cl)c1ccccn1 as the compound, how does the Potency read?
**A.** inactive

**Q.** CC(C)=CCc1c(O)ccc(C(=O)Cc2ccccc2)c1O was tested. Which Potency did it give?
**A.** inactive

**Q.** For COCCn1c(-c2ccccc2)cnc1N, which Potency is on record?
**A.** inactive

**Q.** For Cc1nc(-c2ccccc2)sc1-c1n[nH]c(=S)n1C, which Potency is on record?
**A.** inconclusive: 20 µM [inhibitor, partial curve]

**Q.** With CC1(C)CC2C1CCC1(C)OC1CCC2(C)O (stereo not given) as the compound, how does the Potency read?
**A.** inactive

**Q.** Which Potency does the source give for CCN1C(=C2C(=O)c3ccccc3C2=O)C=Cc2ccccc21 here?
**A.** inactive

**Q.** With Nc1ccc(C(=O)N/N=C/c2sc(N3CCOCC3)nc2-c2ccccc2)cc1 as the compound, how does the Potency read?
**A.** inconclusive: 31.6 µM [inhibitor, partial curve]

**Q.** O=C(N/N=C/c1c[nH]c2ccccc12)c1cc(-c2cccc3ccccc23)n[nH]1 was tested. Which Potency did it give?
**A.** inconclusive: 39.8 µM [inhibitor, single point]

**Q.** How did the Potency turn out when Cc1cc(Nc2ccccc2)nn1C(=O)c1ccc(Br)cc1 was run?
**A.** inactive

**Q.** C=C1CC[C@H](O)C/C1=C/C=C1\CCC[C@]2(C)[C@H]1CC[C@H]2[C@@H](C)CCCC(C)C was tested. Which Potency did it give?
**A.** inactive

**Q.** For O=C(NCc1cccnc1)c1ccc(Cl)c(Cl)c1, which Potency is on record?
**A.** inactive

**Q.** With c1ccc(-c2ccccc2OCCOCCN2CCNCC2)cc1 as the compound, how does the Potency read?
**A.** inconclusive: 39.8 µM [inhibitor, single point]

**Q.** With CCN(CC)S(=O)(=O)c1cccc(C(=O)N/N=C/c2ccc(OC)c(O)c2)c1 as the compound, how does the Potency read?
**A.** inactive

**Q.** How did the Potency turn out when Cc1ccc(NC(=O)N(Cc2ccc3c(c2)OCO3)Cc2cc3cc4c(cc3[nH]c2=O)OCCO4)cc1 was run?
**A.** inconclusive: 22.4 µM [inhibitor, single point]

**Q.** For Cc1ccc(C)n1-c1nccc(-c2cccs2)n1, which Potency is on record?
**A.** inconclusive: 31.6 µM [inhibitor, partial curve]

**Q.** Which Potency does the source give for CC(=O)c1n[nH]nc1NC(=O)c1ccccc1 here?
**A.** inactive
